The text below walks through data of the supplement of paper PMC4604168 (melanoma cell lines).

Molecules are shown by their SMILES. The list shows a part of the results. Single values are uncertain, as repeats are few or missing.
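Note: cell number obtained by counting DAPI-stained nuclei in high-throughput microscope images with image analysis software, screen run in 1,536-well plates.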

In the assay the test system is A2058. Nature of the assay: cell count relative to DMSO control; melanoma cells; higher = more viable cells. The settings on record: library dose: low library concentration; 72 h.
`Cn1c(Nc2ccc(C(F)(F)F)cc2)nc2cc(Oc3ccnc(-c4ncc(C(F)(F)F)[nH]4)c3)ccc21` + COCC[n+]1c2c(n(Cc3cnccn3)c1C)C(=O)c1ccccc1C2=O [YM155] (first compound 0.08 µM, partner dose 0.0004 µM) returned a cell count of 63.6%.

In the case of `Clc1ccc(Nc2nnc(Cc3ccncc3)c3ccccc23)cc1` [vatalanib] + C=CCn1c(=O)c2cnc(Nc3ccc(N4CCN(C)CC4)cc3)nc2n1-c1cccc(C(C)(C)O)n1 [MK1775] (first compound 2 µM, partner dose 0.02 µM), the cell count came to 92.8%.

For `Clc1ccc(Nc2nnc(Cc3ccncc3)c3ccccc23)cc1` [vatalanib] + Nc1cccc2c1CN(C1CCC(=O)NC1=O)C2=O [lenalidomide] (first compound 2 µM, partner dose 1 µM), the cell count is 101%.
